From publication PMC4336329 (PLoS ONE, 2015)
The campaign covered roughly 310,000 compounds. About 2,200 (0.71%) showed an effect of 50% or more. The effect is printed as a negative number. The list shows a part of the results.

Target: human ether-à-go-go-related gene (hERG) potassium channel (human, UniProt Q12809)
Assay: primary screen, population patch clamp on CHO cells stably expressing hERG

Chain of human ether-à-go-go-related gene (hERG) potassium channel (Q12809 whole entry, looked up): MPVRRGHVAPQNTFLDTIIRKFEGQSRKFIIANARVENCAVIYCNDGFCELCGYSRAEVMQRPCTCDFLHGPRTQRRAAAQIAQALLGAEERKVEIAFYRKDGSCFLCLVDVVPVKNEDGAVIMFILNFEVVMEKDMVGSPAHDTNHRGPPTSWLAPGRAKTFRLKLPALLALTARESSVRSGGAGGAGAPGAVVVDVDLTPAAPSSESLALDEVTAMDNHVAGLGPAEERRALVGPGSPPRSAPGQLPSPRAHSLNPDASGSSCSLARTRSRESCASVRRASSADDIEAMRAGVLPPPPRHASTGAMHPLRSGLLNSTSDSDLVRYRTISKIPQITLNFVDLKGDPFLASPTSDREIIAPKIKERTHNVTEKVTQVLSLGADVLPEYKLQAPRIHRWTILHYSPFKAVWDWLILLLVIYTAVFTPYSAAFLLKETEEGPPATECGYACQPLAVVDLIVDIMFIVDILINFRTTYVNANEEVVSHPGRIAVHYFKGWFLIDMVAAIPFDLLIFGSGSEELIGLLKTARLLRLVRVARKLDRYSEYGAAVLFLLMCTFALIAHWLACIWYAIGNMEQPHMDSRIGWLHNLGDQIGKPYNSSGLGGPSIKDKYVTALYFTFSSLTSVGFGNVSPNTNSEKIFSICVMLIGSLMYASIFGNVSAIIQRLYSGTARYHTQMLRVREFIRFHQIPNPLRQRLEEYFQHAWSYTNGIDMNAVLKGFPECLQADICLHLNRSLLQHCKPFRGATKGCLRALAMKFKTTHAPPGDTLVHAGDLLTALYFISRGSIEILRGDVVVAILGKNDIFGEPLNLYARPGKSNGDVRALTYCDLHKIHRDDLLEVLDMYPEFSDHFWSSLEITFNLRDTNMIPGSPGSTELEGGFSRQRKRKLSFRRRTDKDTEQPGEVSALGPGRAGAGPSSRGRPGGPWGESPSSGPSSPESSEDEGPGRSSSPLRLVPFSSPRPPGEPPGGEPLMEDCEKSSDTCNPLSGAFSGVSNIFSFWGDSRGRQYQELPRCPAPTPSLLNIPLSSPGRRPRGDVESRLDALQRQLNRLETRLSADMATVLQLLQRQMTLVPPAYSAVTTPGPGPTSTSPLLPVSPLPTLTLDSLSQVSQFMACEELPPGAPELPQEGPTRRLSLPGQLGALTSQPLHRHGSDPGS

SMILES	hERG current change (%, negative = inhibition) at 1uM [%]
O=C1C2C3CCC(C3)C2C(=O)N1c1ccc2ccccc2c1 (centres unmarked)	10.1
COc1ccc(C(CNS(=O)(=O)c2ccc(C)cc2)N2CCN(C)CC2)cc1 (centres unmarked)	3.76
Cc1nc2ccc(NC(=O)c3ccc(F)c(S(=O)(=O)N4CCOCC4)c3)cc2s1	4.94
CCOc1ccc(C2C=C(c3ccc(F)cc3)Nc3ncnn32)cc1 (centres unmarked)	3.04
O=C(C1CC1)N(Cc1ccco1)c1nc(-c2ccccc2)cs1	4.58
O=C(Nc1cccc(Cl)c1)N1N=CCC1c1ccccc1 (centres unmarked)	10.9
CN1CCN(c2ccc(Cl)cc2NC(=O)c2ccc(S(=O)(=O)N(C)C)cc2)CC1	16.1
O=C(CN1CCN(S(=O)(=O)N2CCCCCC2)CC1)Nc1cc(Cl)ccc1Cl	11.2
Cc1cccc2cc(C#N)c(N3CCC(O)CC3)nc12	11.9
COc1ccc(-c2cc(-c3ccc(Br)cc3)nc3ncnn23)cc1OC	5.18
CCc1ccc(N2C(=O)NC(=O)/C(=C/c3cccn3CCOc3ccc(C)cc3)C2=O)cc1	2.08
Cc1ccc(-c2nc(N3CCOCC3)sc2C(=O)N2CCCCC2)cc1	6.67
CCn1c(SCC(=O)N2CCN(c3ccccc3)CC2)nnc1-c1cc2cc(Cl)ccc2o1	3.45
S=C(Nc1cccc(Br)c1)N1CCn2cccc2C1c1cccnc1 (centres unmarked)	5.58
CCc1nnc(NC(=O)CN2C(=O)N(C)C3(CCCCC3)C2=O)s1	6.94
CCCN(C(=O)c1ccc(S(=O)(=O)N2CCCC2)cc1)C1CCS(=O)(=O)C1 (centres unmarked)	11.5
CCOC(=O)c1c(NC(=O)Cn2cnc3scc(-c4ccc(C)cc4)c3c2=O)sc(C)c1C	-14.2
O=C(CCc1c[nH]c2ccccc12)NCc1ccco1	6.23
Cc1cc(OCCn2cc(/C(N)=N/O)c3ccccc32)ccc1Cl	8.32
Cc1cnc(C(=O)OCC(=O)Nc2ccc(OCc3ccccc3)cc2)cn1	5.72
CCCCCCN(C(=O)CCCCCN1C(=O)NC(c2ccc([N+](=O)[O-])cc2)C(C(=O)OCc2ccccc2)=C1C)C(C(=O)NCCCC)c1ccc(OCC(=O)OC)c(C(=O)OC)c1 (centres unmarked)	13.6
CCOC(=O)C=Nc1c(N)n(C)c(=O)n(C)c1=O	4.39

SMILES	hERG current change (%, negative = inhibition) at 1uM [%]
CC(C)Cc1cc(C(=O)Nc2cc(C(F)(F)F)ccc2Cl)no1	9.33
CN(C)c1ccc(/C=N/NC(=O)C2COc3ccccc3O2)o1 (centres unmarked)	12
CCOc1nc(Nc2ccc([N+](=O)[O-])cc2)nc(NC(C)(C)C)n1	6.48
COc1cccc2c1Oc1ncccc1N(C(=O)CCC(=O)NCc1ccccc1F)C2	1.82
CCOC(=O)C1CCCN(CCC(=O)Nc2cc(OC)ccc2OC)C1.Cl (centres unmarked)	4.64
Cc1nc(SCc2ccc(C(=O)O)cc2)nc2c1CCCC2	8.98
CNC1(C(N)=O)CCNCC1	13.7
Cn1nnnc1SCCOc1ccc(C#N)cc1	1.5
CCOC(=O)c1c(C)[nH]c(C(=O)COC(=O)[C@H](C)NC(=O)c2ccccc2Cl)c1C	14.1
COc1cc2c(cc1OC)C1Cc3ccc(OC)c(OC)c3C[N+]1([O-])CC2 (centres unmarked)	14.1
CC(c1ccc(F)cc1)n1cc(C(=O)NCc2ccccn2)nn1 (centres unmarked)	4.72
O=C(O)C1CSC2(c3ccc(F)cc3)CCC(=O)N12 (centres unmarked)	14.8
CCN(Cc1ccncc1)C(=O)C1CCC(=O)N(Cc2ccc(Cl)cc2)C1 (centres unmarked)	-13.9
Cc1[nH]c2ccc(F)cc2c1CCN(Cc1cccnc1)C(=S)Nc1ccccc1	6.15
COc1ccc(-n2nc(C(=O)c3cccs3)cc(-c3nc4ccccc4[nH]3)c2=N)cc1	5.98
Cn1nc(C(C)(C)C)c([N+](=O)[O-])c1C(=O)Nc1ccc(Br)cc1	20.5
O=C(Cn1nc(Cl)nc1Cl)c1ccc2c(c1)OCCO2	11.6
Cc1cc(C)n2nc(-c3ccccc3)cc2n1	11.7
Cc1ccc(F)c(NC(=O)c2ccc(Cn3cc(Cl)cn3)cc2)c1	14.9
COc1ccc(-c2nn(-c3ccccc3)cc2/C=C2/SC(=S)N(CCCC(=O)O)C2=O)c(C)c1	20.4
CC(C)C[C@H]1CN=C(N(C)C)N1CCCCc1ccccc1	-28
COc1ccc(CNC(=O)[C@@H]2CC=C[C@@H]3CCN(C4CCCCC4)C(=O)[C@@H]32)cc1	9.19

SMILES	hERG current change (%, negative = inhibition) at 1uM [%]
O=[N+]([O-])c1ccccc1S(=O)(=O)N1CCN(Cc2cc3c(cc2O)OCO3)CC1	25.7
CN(C)C(CNC(=O)c1ccc(S(=O)(=O)Nc2cccc(C(F)(F)F)c2)cc1)c1ccco1 (centres unmarked)	4.7
NC(=S)NNC(=O)C12CC3CC(CC(C3)C1)C2	2.9
COc1cccc(CNC(=O)N2CCN(c3ccccc3C)CC2)c1	17.1
COc1cc(CCC(=O)Nc2ccc(C)c(S(=O)(=O)N3CCCCCC3)c2)cc(OC)c1OC	1.23
CCC(C(=O)NC1CCCC1)N(Cc1ccco1)C(=O)Cn1nnc(-c2ccc(C)cc2)n1 (centres unmarked)	-2.45
COc1cc(NC(=O)c2ccco2)c(OC)cc1NC(=O)CCC(=O)Nc1cc(C)cc(C)c1	-0.696
CC(=O)c1ccccc1NC(=O)C1C2CCC(O2)C1C(=O)O (centres unmarked)	-3.11
CCc1noc(C)c1C(=O)Nc1nc(-c2ccc(F)cc2)c(C)s1	6.08
CS(=O)(=O)c1ccc2nc(NC(=O)CN3C(=O)NC4(CCCC4)C3=O)sc2c1	2.82
Cc1cc(C(=O)Nc2ccccc2C(=O)N2CCCCC2)ccc1[N+](=O)[O-]	9.31
COc1cc(/C=N\NC(=O)c2ccc(-c3ccccc3)cc2)cc(OC)c1O	-4.58
COc1ccc(/C=N/NC(=O)c2ccc(CSc3nc(C)cc(C)n3)cc2)c(OC)c1OC	1.65
O=[N+]([O-])c1cc(C(F)(F)F)ccc1SCC(O)CO (centres unmarked)	-5.64
Nc1cccc2nc3ccccc3cc12	-1.5
Cc1ccc(CN2C(=O)CSC2c2ccccc2F)cc1 (centres unmarked)	12.1
Cc1ccc(N(CC(=O)NC(C)(C)C)C(=O)CCC(=O)Nc2nccs2)cc1C	2.16
O=C(CSc1n[nH]c(=O)n1C1CC1)NCc1ccccc1Cl	11.4
Cn1cnnc1SC(C(=O)Nc1ccc(F)cc1)c1ccccc1 (centres unmarked)	4.93
O=C(NC(Cc1ccccc1)C(=O)O)C1CCCCC1 (centres unmarked)	11.6
CSc1ccc(/C=N/n2c(C)cc(C)cc2=O)cc1	4.02
Cc1cc(C)n2nc(CC(=O)NC3CCCC(C)C3C)nc2n1 (centres unmarked)	10.6

SMILES	hERG current change (%, negative = inhibition) at 1uM [%]
O=C(CN1C(=O)NC2(CCc3ccccc3C2)C1=O)Nc1ccc(F)cc1 (centres unmarked)	8.54
O=C(COC(=O)CNC(=O)c1ccccc1)Nc1ccc(S(=O)(=O)N2CCOCC2)cc1	8.93
O=C(Nc1ccccc1C(F)(F)F)N1CCCCCC1	12.5
Cc1c(NC(=O)CN2C(=O)NC(C)(c3ccccc3Cl)C2=O)c(=O)n(-c2ccccc2)n1C (centres unmarked)	12.9
Cc1ccc(Cl)cc1NC(=O)C1CCN(S(C)(=O)=O)CC1	17.7
CCCCn1c(N)c(N(CCC(C)C)C(=O)CSc2nnc(C)s2)c(=O)[nH]c1=O	1.94
O=C(CN1CCN(S(=O)(=O)c2ccccc2)CC1)Nc1ccccc1C(=O)NC1CC1	1.22
Cc1ccc(C)c(C(=O)c2ccccc2NC(=O)c2ccccn2)c1	10.7
COCCn1c(=O)[nH]c(=O)c2cc(C(=O)c3cc(OC)ccc3O)cnc21	7.1
C=CCN1C(=O)C2(C(C(=O)OCC)=C(N)Oc3c2c(=O)oc2ccccc32)c2ccccc21 (centres unmarked)	12.9
Cn1c(CCN2CCCCC2)nc2cc(NC(=O)Nc3ccccc3)ccc21	-2.3
O=C(CSc1nc(-c2ccccc2Cl)ns1)NCc1ccc2c(c1)OCO2	15.1
Cc1ccc(-c2nc(C)c(C(=O)O)s2)cc1	8.69
COc1ccc(/C=C(\C)C(=O)c2c(C)cc(C)[nH]c2=O)cc1	13.2
COc1cccc(NC(=O)CN2CCN(c3ccccc3F)CC2)c1	-2.33
CC(=O)N1N=C(C)CC1c1ccc(O)cc1 (centres unmarked)	21.2
COC(=O)Cc1ccc(NC(=S)N2CCCC(CO)C2)cc1 (centres unmarked)	-21.1
CCc1noc(C)c1C(=O)Nc1cc(Cl)ccc1N1CCCC1	13.7
CCOC(=O)c1c(C)nc2c(c1-c1ccccc1)C(=O)CCC2	5.35
CC(=O)Nc1ccc(C(=O)Nc2ccc(S(=O)(=O)Nc3nccc(C)n3)cc2)cc1	12.7
